# Some of the results follow. Values were computed here from the reads of four pooled replicates and scatter widely.
# Molecular target: T1, Pho4 (S. cerevisiae) (UniProt P07270)
# T1 sequence: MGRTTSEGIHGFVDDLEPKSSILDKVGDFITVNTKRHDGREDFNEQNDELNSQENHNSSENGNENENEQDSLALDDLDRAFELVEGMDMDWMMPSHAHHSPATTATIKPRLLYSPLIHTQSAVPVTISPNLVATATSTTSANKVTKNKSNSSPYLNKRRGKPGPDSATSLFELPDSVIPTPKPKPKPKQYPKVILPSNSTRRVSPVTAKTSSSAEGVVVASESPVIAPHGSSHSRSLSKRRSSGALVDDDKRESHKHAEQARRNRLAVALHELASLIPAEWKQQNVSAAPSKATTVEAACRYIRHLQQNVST
# Assay: relative binding free energy (BET-seq); higher = weaker binding
# Conditions: reference: library average
row,Sequence,relative binding free energy [kJ/mol]
1,CAGTTCACGTGAATGG,1.46
2,TGTGACACGTGAAGTT,0.92
3,GGTTGCACGTGAGCTA,0.669
4,GGCAGCACGTGTGGTA,-0.0837
5,CTTATCACGTGTGTTG,0.628
6,AGTGTCACGTGAGAAG,1.3
7,GGGCGCACGTGTGTTG,-0.126
8,TTGGTCACGTGGGCGT,0.0837
9,CTTGACACGTGAGGAT,0.962
10,CGCGACACGTGTGTGG,0.167
11,TAGAACACGTGTAAGT,0.879
12,AAGTTCACGTGTGAAT,1.05
13,TGGATCACGTGTAATT,0.586
14,CAGGGCACGTGATGTG,-0.418
15,AGTTCCACGTGAGGGG,1.13
16,GTTATCACGTGCGGAG,0.753
17,TCTTTCACGTGAGGGC,1.8
18,CAGTGCACGTGAAGGG,0.962
19,CTCGTCACGTGGGCGG,0.167
20,CTTGGCACGTGTGGAT,-0.669
21,TCGGACACGTGGTAGT,0.167
22,GTGCCCACGTGTTGGG,-0.251
23,TAAAGCACGTGGTGCT,-0.544

row,Sequence,relative binding free energy [kJ/mol]
1,TGCAGCACGTGGCGTA,-0.418
2,GTTAACACGTGGTATA,0.0418
3,TCTTTCACGTGATGCG,1.05
4,TTCTGCACGTGCAGGG,-0.502
5,TTATGCACGTGTATTG,-0.126
6,GCGTGCACGTGAAGTA,1.26
7,TTATGCACGTGTGCTG,-0.209
8,CTGGGCACGTGGGCTG,-1.46
9,AAAGACACGTGGCGTT,0.335
10,TAGCTCACGTGGGCTT,0.795
11,GGTGGCACGTGATCTG,-0.335
12,GTATGCACGTGCCGTG,0
13,GGTTCCACGTGGTTTT,0.502
14,CTTGTCACGTGGGGTG,-0.209
15,GTGAACACGTGAAAGT,1.34
16,TTGAACACGTGGAAGG,0.0418
17,ATGTGCACGTGGCGTG,-0.544
18,GGCTCCACGTGTAGGG,0.0837
19,GATGGCACGTGGTATT,-0.418
20,TGATTCACGTGAGCGG,1
21,GGTTTCACGTGGCGAT,1.17
22,TATGACACGTGGTAGG,-0.0837
23,TAGTGCACGTGAATGC,0.962

row,Sequence,relative binding free energy [kJ/mol]
1,ATAGTCACGTGATTTG,0.669
2,AAGTACACGTGGGTGC,-0.418
3,TGTAGCACGTGTCTTG,-0.0418
4,TTTGACACGTGTGTGA,0
5,CATGGCACGTGGAATG,-0.335
6,ATTTGCACGTGTGTAC,0.209
7,TGCTGCACGTGTTGTG,-0.335
8,GTAATCACGTGTGGTC,1.92
9,CGATGCACGTGTAGGC,0.502
10,ATGTCCACGTGGAGGT,-0.377
11,CGGTTCACGTGGGGTT,0.669
12,AACGTCACGTGCGGTT,0.628
13,TGGAGCACGTGTATTA,-0.209
14,TGGAGCACGTGTGGAC,-0.293
15,TGGATCACGTGAAAGG,1.92
16,ATAAGCACGTGGGAGG,-0.879
17,TTTGGCACGTGTGTCT,-0.209
18,TGAGGCACGTGTCATT,-0.126
19,TGTGTCACGTGACGGC,1.38
20,CTAGGCACGTGGGATG,-1.21
21,AAATGCACGTGGAGGA,0.126
22,GGGCGCACGTGGTCGA,0.209
23,AAGAACACGTGTGTAT,0.628

row,Sequence,relative binding free energy [kJ/mol]
1,TTAGGCACGTGTGCGA,-0.544
2,AGGGGCACGTGGGCGG,-0.879
3,AGGGTCACGTGGGCAG,-0.0418
4,CGGGGCACGTGTTTAG,-0.586
5,AGGATCACGTGGGCGA,-0.0418
6,GAGTGCACGTGAGTTT,1.88
7,AGAGGCACGTGCAGTA,-0.628
8,ATCTGCACGTGTTTAA,-0.251
9,TGGCACACGTGTTCGG,0
10,TGGGACACGTGGCCAG,-0.209
11,GGTTGCACGTGATGTC,-0.0418
12,TGTTCCACGTGCTTGG,-0.46
13,GTTTTCACGTGTCGCT,1.38
14,ATGTGCACGTGGCCTT,-0.795
15,TTGCCCACGTGGTGTT,-0.753
16,TGTGTCACGTGCGCGA,-0.126
17,TTATTCACGTGCTTTT,0.251
18,TACGCCACGTGTTGGT,0
19,CGGTTCACGTGCGGGG,1.26
20,TAGGACACGTGATGCG,0.167
21,CGGATCACGTGAATTG,1.92
22,GAATCCACGTGGTTTT,0.586
23,GGATGCACGTGGGAAA,0

row,Sequence,relative binding free energy [kJ/mol]
1,GTGGGCACGTGGGTTC,-0.502
2,ATCATCACGTGGGGGG,0.0418
3,AGTGGCACGTGAGGTA,0.335
4,GGTCGCACGTGCAGTG,0.46
5,GGGTACACGTGGGATG,-0.126
6,TTGGACACGTGTATCG,0.251
7,GGAGGCACGTGAGGCC,1.21
8,GAGGGCACGTGTGAAT,0.0418
9,GGGGTCACGTGTTCGC,0.753
10,TTAATCACGTGACGTA,0.962
11,TAACGCACGTGGTATG,-0.628
12,AGGGACACGTGGGAGT,-0.0418
13,TCGTTCACGTGTAGAT,1.67
14,TCTTTCACGTGGCGTT,0.628
15,AGGGGCACGTGTGTAT,-0.502
16,AAAAGCACGTGGAGGG,-0.753
17,GGGATCACGTGTTGTA,0.795
18,GGTCGCACGTGGTAAA,0.377
19,AAGTGCACGTGGGGAC,-0.377
20,ATATTCACGTGGTATG,0.586
21,GGATGCACGTGGTGGC,0.0837
22,ATGTGCACGTGCGCGG,-0.962
23,CGGTTCACGTGATTTT,1

# Reference: the BET-seq Pho4 binding data (Le et al. 2018)
